Assay results: patent publication US10556926B2, “Synthetic artificial peptides with antimicrobial effect” (priority 2014, dated 2020)
Part of at least one peptide drawing is inferred or uncertain, most often the ends. Some entries share one result that the patent states for a list of compounds. No end group written: not given here.

What was measured:
Staphylococcus xylosus [1] = details: MHB, 18 hours at 37° C.; mean of four test series
Method: (§1) The minimum inhibitory concentration (MIC) of the peptides was carried out by way of example against gram(−) E. coli DH5α (and gram(+) Staphylococcus xylosus (both Deutsche Sammlung von Mikroorganismen and Zellkulturen, DSMZ) in a standardized microdilution method according to the general guidelines of the CLSI (Clinical and Laboratory Standards Institute 2006) and EUCAST (European Committee for Antimicrobial Susceptibility Testing of the European Society of Clinical Microbiology and Infectious Diseases 2003) with slight adaptations to the investigation of cationic antimicrobial peptides (Wiegand et al. 2008). The bacteria cells were cultivated in Mueller-Hinton-Boullion (MHB) to an optical density of 0.4 to 0.6 at 600 nm wavelength, corresponding to about 4·10^8 bacteria per ml. Then, the bacteria cultures were diluted to a bacteria concentration of about 1·10^5 bacteria per ml in sterile MHB. Using the peptides, series of 2-fold dilutions starting at 128 μM to the smallest dilution of 0.5 μM in MHB were prepared. The peptide dilutions were mixed with the dilute bacteria cultures in a […] in the chambers of a 96-well polypropylene microtiter plate (Starlab, Hamburg, Germany), so that the peptides were present in an end concentration between 64 μM and 0.25 μM at a bacteria concentration of 5·10^4 bacteria/ml. Sterile MHB served as negative control, and the positive control used as the corresponding bacteria concentration in MHB without the addition of peptide. The microtiter plates were incubated for 18 hours at 37° C. with shaking at 120 rpm in a climatically controlled chamber. After the incubation, the bacteria concentration was determined by renewed absorption measurement at a wavelength of 600 nm.

E. coli DH5α = details: MHB, 18 hours at 37° C.; mean of four test series
Method: as §1

Staphylococcus xylosus [2] = experiment: Mixed culture experiment (bacterially contaminated cell culture), bacteria; format: cell-based; details: 25 and 50 μM peptide, two hours, with U937
Method: Destruction of the bacteria membranes by the antimicrobial peptides was investigated in a flow cytometric method with the help of a living/dead staining method in combination with an internal calibration and counting system. For this purpose, SYBR Green I (Sigma-Aldrich) was used as total staining and propidium iodide (Sigma-Aldrich) was used as contrast staining for membrane-damaged bacteria. […] The flow analysis was carried out on a Cytomics FC500 Instrument (Beckmann Coulter, Munich, Germany) equipped with an argon laser (488 nm) and the corresponding emission filters for SYBR Green I (525 nm) and propidium iodide (620 nm). […] Then, the mixture was incubated for 10 min in the dark at room temperature and then measured by flow cytometry. The number of events in each gate was captured and evaluated using the CXP Analyses 2.2 Software. The total number of living and dead bacteria was calculated. […]
The ability of the antimicrobial peptides to be used as a therapeutic active ingredient was investigated by reference to its selective antimicrobial properties in model mixed culture experiments. […] Then, the mixed cell cultures were stained and measured by flow cytometry as described in example 3, the measurement scale being adapted to the measurement of the larger eukaryotic cells.

ILILIKRK [N5] was tested, and the “MIC S. xylosus” value (Staphylococcus xylosus [1]) was 64 µM and the “MIC E. coli” value (E. coli DH5α) was 64 µM.

For ILILILILKRK [M3], the “MIC S. xylosus” value (Staphylococcus xylosus [1]) was > 64 µM and the “MIC E. coli” value (E. coli DH5α) was > 64 µM.

In the case of KKKIIIIIIKKK [O1], the “MIC S. xylosus” value (Staphylococcus xylosus [1]) is reported as 0.5 µM, the “MIC E. coli” value (E. coli DH5α) is reported as 8 µM and the “Killing of S. xylosus cells in mixed culture” value (Staphylococcus xylosus [2]) is reported as “virtually complete killing of the S. xylosus cells”.

With KKKKKIIIIIDKKKK [D6] the “MIC S. xylosus” value (Staphylococcus xylosus [1]) was 16 µM and the “MIC E. coli” value (E. coli DH5α) was 32 µM.

For KKKKKIIIIIKKKKD [D4], the “MIC S. xylosus” value (Staphylococcus xylosus [1]) was 16 µM and the “MIC E. coli” value (E. coli DH5α) was 32 µM.

For KKKKKIIIIIKKKKK [D5], the “MIC S. xylosus” value (Staphylococcus xylosus [1]) was 2 µM and the “MIC E. coli” value (E. coli DH5α) was 16 µM.

For KRKILIKRK [H3], the “MIC S. xylosus” value (Staphylococcus xylosus [1]) was 64 µM.

With KRKILILIK [C4] the “MIC S. xylosus” value (Staphylococcus xylosus [1]) was 8 µM and the “MIC E. coli” value (E. coli DH5α) was 32 µM.

KRKILILIKRK [M1] was tested, and the “MIC S. xylosus” value (Staphylococcus xylosus [1]) was 2 µM and the “MIC E. coli” value (E. coli DH5α) was 8 µM.

For KRKILILIKRKRK [C1], the “MIC S. xylosus” value (Staphylococcus xylosus [1]) was 1 µM and the “MIC E. coli” value (E. coli DH5α) was 16 µM.

In the case of KRKILILILIKRK [H1], the “MIC S. xylosus” value (Staphylococcus xylosus [1]) is reported as 1 µM and the “MIC E. coli” value (E. coli DH5α) is reported as 8 µM.

In the case of KRKILILILIL [M2], the “MIC S. xylosus” value (Staphylococcus xylosus [1]) is reported as > 64 µM and the “MIC E. coli” value (E. coli DH5α) is reported as > 64 µM.

In the case of KRKLILIKRK [H2], the “MIC S. xylosus” value (Staphylococcus xylosus [1]) is reported as 16 µM.
